Publication PMC4336329 (PLoS ONE, 2015)
Screen size: about 310,000 compounds; about 14,000 (4.5%) showed an effect of 50% or more. Effects have a minus sign here. This is one part of the list.

target: human ether-à-go-go-related gene (hERG) potassium channel (human, UniProt Q12809); assay: primary screen, population patch clamp on CHO cells stably expressing hERG
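Also: peak tail current of the secondary pulse compared with the same well before compound.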

Chain of human ether-à-go-go-related gene (hERG) potassium channel (Q12809 whole entry, looked up): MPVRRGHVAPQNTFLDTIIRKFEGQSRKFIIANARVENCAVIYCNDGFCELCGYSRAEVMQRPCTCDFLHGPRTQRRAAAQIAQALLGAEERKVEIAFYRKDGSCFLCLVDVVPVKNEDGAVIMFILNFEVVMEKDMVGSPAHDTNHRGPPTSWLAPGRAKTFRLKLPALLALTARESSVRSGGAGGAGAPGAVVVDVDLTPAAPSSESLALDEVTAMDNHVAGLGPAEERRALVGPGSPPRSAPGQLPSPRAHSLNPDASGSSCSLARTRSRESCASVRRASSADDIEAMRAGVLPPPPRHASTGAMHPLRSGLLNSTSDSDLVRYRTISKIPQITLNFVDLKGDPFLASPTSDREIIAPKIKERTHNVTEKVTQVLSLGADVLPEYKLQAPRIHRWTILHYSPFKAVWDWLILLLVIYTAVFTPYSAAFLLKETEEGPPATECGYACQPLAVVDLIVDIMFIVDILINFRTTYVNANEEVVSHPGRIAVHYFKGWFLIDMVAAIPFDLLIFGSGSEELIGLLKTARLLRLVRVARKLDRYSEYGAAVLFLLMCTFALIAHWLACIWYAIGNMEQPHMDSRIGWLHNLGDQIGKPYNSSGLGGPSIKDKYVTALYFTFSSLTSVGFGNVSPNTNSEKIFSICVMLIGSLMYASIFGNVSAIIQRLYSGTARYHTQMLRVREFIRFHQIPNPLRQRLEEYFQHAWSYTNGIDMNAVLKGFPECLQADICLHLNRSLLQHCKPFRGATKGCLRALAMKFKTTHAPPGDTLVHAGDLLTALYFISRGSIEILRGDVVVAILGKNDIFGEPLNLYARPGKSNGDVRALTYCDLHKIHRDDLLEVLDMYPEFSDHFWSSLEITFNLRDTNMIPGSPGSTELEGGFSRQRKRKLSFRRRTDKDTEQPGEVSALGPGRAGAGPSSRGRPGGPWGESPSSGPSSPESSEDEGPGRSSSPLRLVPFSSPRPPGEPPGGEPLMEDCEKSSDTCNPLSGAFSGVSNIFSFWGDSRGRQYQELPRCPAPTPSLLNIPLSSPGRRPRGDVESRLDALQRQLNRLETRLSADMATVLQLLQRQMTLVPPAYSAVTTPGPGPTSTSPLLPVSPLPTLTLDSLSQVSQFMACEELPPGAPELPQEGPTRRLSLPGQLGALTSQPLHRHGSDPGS

Compound	hERG current change (%, negative = inhibition) at 10uM
O=C(NCc1ccccn1)c1cc2ccccn2n1	5.52%
O=C(CSc1nc(O)c(Cc2ccccc2)c(=O)n1-c1ccccc1)N1CCOCC1	-7.02%
CC1Sc2ccc(S(=O)(=O)CCC(=O)N3CCN(c4cccc(Cl)c4)CC3)cc2NC1=O (centres unmarked)	-17.2%
Cc1nnc2n(C)c(=O)c3c4c(sc3n12)COC(C)(C)C4	-4.87%
Cc1ccc(N2CCN(S(=O)(=O)c3ccc(F)c(C)c3)CC2)c(C)c1	-6.88%
COc1ccc(NC(=O)CC(c2ccc(F)cc2)c2ccc(OC)cc2)cc1 (centres unmarked)	23%
CC(Oc1ccccc1)C(=O)N(CCC1=CCCCC1)c1c(N)n(Cc2ccccc2)c(=O)[nH]c1=O (centres unmarked)	-48.6%
C/C(=N\Nc1cc(C)nc(NCc2ccccc2)n1)c1ccc([N+](=O)[O-])cc1	9.33%
COC(=O)C1C(O)=C(C=Nc2ccccc2)C(=O)CC1(C)C (centres unmarked)	9.3%
CCOC(=O)CSc1nc(N)c(C#N)cc1C#N	4.45%
CNC(=O)CN(C)S(=O)(=O)c1ccc(F)cc1	-7.07%
COc1ccc(NC(=O)c2sc3nc(Cc4ccccc4)cc(C(F)(F)F)c3c2N)cc1OC	-2.56%
COc1ccc2nc(SCc3cccc(C)c3)nc(C)c2c1	-10.9%
CC(C(=O)Nc1ccccn1)N1C(=O)C2C3C=CC(C3)C2C1=O (centres unmarked)	-10.4%
O=c1c2ccccc2nc(/C=C/c2ccc(Br)cc2)n1CCO	2.81%
CCOC(=O)CC1(NC(=O)c2cc(COc3ccc(F)c(F)c3)on2)CCCCC1	-0.733%
CN(c1ccccc1)c1ccc(/C=c2\s/c(=C(/C#N)C(=O)C(C)(C)C)n(Cc3ccco3)c2=O)cc1	8.59%
O=[N+]([O-])c1ccccc1CNCCCCCO	-6.35%
CC12CCC(c3c(CO)nn(-c4ccccc4)c31)C2(C)C (centres unmarked)	-7.15%
O=C(COc1ccc(C(=S)N2CCCC2)cc1)Nc1ccc(F)cc1	-15.1%
COc1ccc(COC(=O)c2ccc(Cl)c(S(=O)(=O)N3CC(C)OC(C)C3)c2)cc1 (centres unmarked)	0.481%
CCCNS(=O)(=O)c1ccc(OC)c(Cl)c1Cl	-9.11%
O=C(c1cc(Cl)nc2ccccc12)N(Cc1nnc(-c2ccc(Cl)cc2)o1)C1CC1	-49%

Compound	hERG current change (%, negative = inhibition) at 10uM
O=C(/C=C/c1ccc2c(c1)OCO2)NCc1cn2cc(Cl)ccc2n1	1.03%
O=C(CSc1nnc(CNC(=O)c2c(F)cccc2Cl)o1)NCCc1ccccc1	-1.59%
CNC(=S)Nc1ccc(Br)cc1	-7.63%
O=C(NCc1ccccc1Cl)C1CCCN1C(=O)NCc1ccccc1 (centres unmarked)	14.4%
COn1c(-n2nc(C)cc2C)nc2ccccc2c1=O	16%
CC(C)(C)N(Cc1ccccc1)C(=O)COC(=O)CSc1ccc([N+](=O)[O-])cc1	14.8%
COc1cc(S(N)(=O)=O)c(OC)cc1N	28.7%
CCCn1c(NCCO)nc2ccccc21	2.74%
Oc1ccc(NC(=S)Nc2ccc(O)cc2)cc1	9.21%
Cc1ccc2c(Cl)c(C(=O)NCCCn3ccnc3)sc2c1	-25.4%
Cc1cccc(CSc2nc3c(c(=O)n2C)SCC3)c1	-11.5%
O=C(CCNc1cccc(F)c1)c1cc2ccccc2o1	9.42%
COc1cccc(OC)c1C(=O)Nc1ccc(N2CCN(C(=O)c3ccco3)CC2)cc1	9.97%
Cc1ccc(OCc2n[nH]c(=S)n2-c2ccccc2)cc1C	16.2%
COc1ccc(OC)c(/C=C2\Oc3cc(OCC(=O)N4CCC(C(=O)O)CC4)ccc3C2=O)c1	-0.513%
COC(=O)c1ccc(C2/C(=C(/O)c3ccc4c(c3)CC(C)O4)C(=O)C(=O)N2Cc2ccncc2)cc1 (centres unmarked)	14.2%
Cc1ccccc1CN1CCN(CC(=O)NCCCN2CCN(c3ccc(F)cc3)CC2)C1=O	-71.2%
COc1ccc(OCCN(C)Cc2ccccc2)cc1	-41.9%
COc1ccccc1C(=O)Nc1ccc(S(=O)(=O)N2CCOCC2)cc1	-12.6%
Cc1nnc(SCC(=O)Nc2ccccc2F)n1Cc1ccco1	-0.661%
Cc1ccc[n+](CC(=O)Nc2ccc([N+](=O)[O-])cc2Cl)c1.[Cl-]	-1.45%
O=C(N/N=C/c1ccc([N+](=O)[O-])o1)C(=O)Nc1ccc(C(=O)O)cc1	23%
CC1(C)N=C(c2ccccn2)C(C)(C)N1O	24.3%

Compound	hERG current change (%, negative = inhibition) at 10uM
CONc1nc2nonc2nc1NOC	14.8%
Cc1ccc(C2=NN(C(=O)c3ccco3)C(O)(C(F)(F)F)C2)cc1 (centres unmarked)	-34%
O=C(Nc1ccccc1C(=O)N1CCOCC1)c1ccc(Br)cc1	-23.8%
O=C1C2CCCN2C(=O)N1CCCCN1CCN(c2cccc(Cl)c2)CC1 (centres unmarked)	-65.6%
O=C(CC1C(=O)NCCN1Cc1c(F)cccc1Cl)NCCCN1CCCC1=O (centres unmarked)	14.2%
O=C(Nc1ncn[nH]1)c1ccc(Cl)cc1Cl	-4.04%
O=C(Nc1cccc(F)c1)C1CCCN1C(=O)OCc1ccccc1 (centres unmarked)	1.4%
CCn1cnc2cc(NCc3nc4ccccc4n3Cc3ccccc3)ccc21	-65.6%
Cl.O=C(O)C1CCCN(CCC=C(c2ccccc2)c2ccccc2)C1 (centres unmarked)	-46%
CC(C)CCN1C(=O)c2ccc(C(=O)OCn3nnc4ccccc4c3=O)cc2C1=O	12.7%
CC(C)P(=O)(c1cccc(C(=O)O)c1)C(C)C	13.3%
CC(=O)Nc1ccc(S(=O)(=O)Oc2ccc(C=O)cc2)cc1	-0.403%
CCN(CC)CCNC(=O)c1cc(S(=O)(=O)N2CCc3ccccc32)cn1C	-66.1%
O=C(Cn1cnc2scc(-c3ccc(Br)cc3)c2c1=O)N1CCOCC1	-9.95%
O=C(CSc1nnc(-c2ccc(S(=O)(=O)N3CCCC3)cc2)o1)NCC1CCCO1 (centres unmarked)	3.55%
COc1cc(C(=O)Nc2nnc(C)s2)c([N+](=O)[O-])cc1OC	-16.8%
CCc1nnc(NC(=O)C(NS(=O)(=O)c2ccc3c(c2)OCCO3)C(C)C)s1 (centres unmarked)	-4.87%
COc1cccc(CC(C(=O)Nc2cc(C)ccc2C)c2nn[nH]n2)c1OC (centres unmarked)	-10.4%
Cc1cccc(OCC(=O)NS(=O)(=O)c2ccc(Br)cc2)c1	6.23%
Cc1ccccc1-n1c(C)n[nH]c1=S	19.3%
Cc1csc(SCC(=O)Nc2nc3ccccc3s2)n1	3.27%
CCCCNC(=O)O[C@H]1C[C@@H]2CCN3C(=O)CCC[C@H]([C@H]1CC)[C@H]23	-8.19%
CCOCCCNc1c(CC)c(C)c(C#N)c2nc3ccccc3n12	-42.3%

Compound	hERG current change (%, negative = inhibition) at 10uM
CCOC(=O)c1c(NC(=O)CSc2nnnn2-c2ccccc2)sc2c1CCC(C)C2 (centres unmarked)	-5.66%
CN1c2ccccc2-c2nc3ccccc3n2C1c1ccncc1 (centres unmarked)	-13.1%
CCc1nnc(NC(=O)CCNC(=O)c2ccccc2Cl)s1	13.2%
CCOc1cc(CNn2cnnc2)cc(Br)c1OCC(=O)NC(C)(C)C	12%
Cc1ccc(NC(=O)Cn2nc(C(=O)O)c3ccccc3c2=O)c([N+](=O)[O-])c1	8.22%
Cc1ccc2nc(-c3cccnc3SCC(=O)N3c4ccccc4CC3C)[nH]c2c1 (centres unmarked)	2.71%
CCCC1(C)Nc2ccccc2-c2nc3ccccc3n21 (centres unmarked)	3.68%
Cc1ccc(-n2nnnc2SCC(=O)c2c(N)n(CC(C)C)c(=O)n(C)c2=O)cc1	-69.1%
Cc1ccc(-c2cc(C(=O)O)c3cc(Br)ccc3n2)s1	16.7%
O=C(c1ccc2c(c1)OCO2)C1CCCN(Cc2cn[nH]c2-c2ccccc2)C1 (centres unmarked)	-72.2%
O=C1CN(C(=O)COC(=O)c2cccc(OCc3ccccc3)c2)c2ccccc2N1	-0.134%
O=S(=O)(c1cnc(Cl)c(Br)c1)N1CCN(c2ncccn2)CC1	30%
COc1ccccc1OCCn1cc(/C=N/n2cnnc2)c2ccccc21	-15.4%
CCCCN(CC)C(=O)Cn1nc(Cc2ccncc2)c2ccccc2c1=O	-10.6%
O=[N+]([O-])c1ccc(N2CCC(=NOCc3ccc(Cl)cc3)CC2)cc1	-54.5%
CSc1nccc(-c2sc(SC)c(C#N)c2-c2ccccc2)n1	16.7%
CC1CCC(NC(=O)CCNC(=O)c2ccccc2)CC1 (centres unmarked)	4.03%
CCc1nnc(NC(=O)CCNC(=O)c2ccco2)s1	18.3%
COC(=O)COc1cc(OCC(=O)OC)c2c(-c3ccccc3)cc(=O)oc2c1	-3.73%
CCCN(CCC)C(=O)Cn1c(=O)n(CCCCC(=O)NCc2ccco2)c(=O)c2ccccc21	-5.31%
